Reference: PubChem BioAssay AID686971 (National Center for Advancing Translational Sciences (NCATS), 2013)
The whole screen tested about 360,000 compounds, of which about 7,500 (2.1%) were called active. Inconclusive results, whose numbers are uncertain, are shown with a selection of clear calls. Calls follow the shape of the dose curve; as a rule, active = well fitted cell-killing curve with a large enough effect; inconclusive = small, poorly fitted or top-dose-only effect, or effect the other way, or another doubt; inactive = no such curve, though single readings can be large or run the other way. No potency is given beside an inconclusive call; the fits are too rough.

Assay: qHTS for induction of synthetic lethality in tumor cells producing 2HG: qHTS for the HT-1080-IDH1KD cell line;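 as to activity, negative = toxicity: 0% = DMSO wells and -100% = cell-free medium wells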
Conditions: HT-1080 IDH1 knockdown viability, ATP luminescence, 48 h; activity, negative = toxicity: at 46.1 µM (top of the series) unless noted
Summary of the method: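 IDH1KD HT-1080 cells, 750/well, RPMI + 5% FBS; compound pinned after 2 h settling; 48 h, 37 °C; CellTiter-Glo luminescence; % activity normalised to DMSO and no-cell wells; curves fitted, classed by r2 and efficacy.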
Potency is read from the fitted curve at half-maximal effect; tags tell the direction and shape of the fitted curve.

**Q.** For COc1ccc([N+](=O)[O-])c(C=CC(=O)c2ccccn2)c1, which Potency is on record?
**A.** inconclusive [cytotoxic, single point]

**Q.** For Cc1cc(N/N=C/c2ccc(O)cc2)c2cccc(C)c2n1, which Potency is on record?
**A.** inconclusive [cytotoxic, single point]

**Q.** Which Potency does the source give for CCOc1cc(-c2c(C)c(CC)nc(N)c2C#N)ccc1O here?
**A.** inconclusive [cytotoxic, partial curve]

**Q.** With CCOC(=O)CC(=O)CSc1ncnc2c1nnn2-c1ccc(OC)cc1 as the compound, how does the Potency read?
**A.** inactive

**Q.** Which Potency does the source give for CCOC(=O)N1CCc2c(sc3c2c(=O)n(-c2ccc(CC)cc2)c(=O)n3CC(=O)NCC2CCCO2)C1 (stereo unspecified) here?
**A.** inactive

**Q.** With O=C(/C=C/c1ccco1)N1CCc2ccccc21 as the compound, how does the Potency read?
**A.** inconclusive [cytotoxic, single point]

**Q.** With CC1CCCN(S(=O)(=O)c2ccc3[nH]c4c(c3c2)CCCC4)C1 (stereo unspecified) as the compound, how does the Potency read?
**A.** inconclusive [cytotoxic, single point]

**Q.** Which Potency does the source give for CC1=NN(C(N)=S)C(=O)C1N=Nc1ccc([N+](=O)[O-])cc1 (stereo unspecified) here?
**A.** inactive

**Q.** With O=c1[nH][nH]c2c1[C@H](CCc1cccc(Cl)c1)O[C@H](CCc1ccccc1)C2 as the compound, how does the Potency read?
**A.** inactive

**Q.** For c1ccc([C@H]2CN3C(=N2)Sc2ccccc23)cc1, which Potency is on record?
**A.** inactive

**Q.** With COc1cc(NC(=O)COc2ccccc2Cl)ccc1NC(=O)C(C)C as the compound, how does the activity, negative = toxicity read?
**A.** inconclusive: 33.5%

**Q.** Which Potency does the source give for Cc1cn(-c2cc(C(=O)Nc3ccc(C)c(NC(=O)C(=O)c4c[nH]c5ccccc45)c3)cc(C(F)(F)F)c2)cn1 here?
**A.** inconclusive [cytotoxic, single point]

**Q.** With COc1ccc(CCN(C)C(=O)c2cccc(S(=O)(=O)N3CCN(c4ccc(F)cc4)CC3)c2)cc1OC as the compound, how does the Potency read?
**A.** inconclusive [cytotoxic, single point]

**Q.** With O=C(O)CN1C(=O)SC(Nc2ccc(Cl)cc2)C1=O (stereo unspecified) as the compound, how does the Potency read?
**A.** inconclusive [cytotoxic, single point]

**Q.** Which Potency does the source give for N#CCc1ccc(OCCCN2CCC(C(O)(c3ccccc3)c3ccccc3)CC2)cc1 here?
**A.** inconclusive [cytotoxic, single point]

**Q.** For Cc1ccc(N2C(=O)N(c3ccc(C)cc3)C3CS(=O)(=O)CC32)cc1 (stereo unspecified), which Potency is on record?
**A.** inactive

**Q.** For CCn1c2ccccc2c2cc(NC(=O)CSc3nnc(-c4ccccc4)o3)ccc21, which Potency is on record?
**A.** active: 20.6 µM

**Q.** For CCCN1CCN(C(=O)C2CCN(S(=O)(=O)c3c(C)noc3/C=C/c3ccc(C)cc3)CC2)CC1, which Potency is on record?
**A.** inconclusive [cytotoxic, single point]

**Q.** With O=C(NC(c1ccc(Cl)cc1)c1cnccn1)C1CCN(CCCc2ccccc2)CC1 (stereo unspecified) as the compound, how does the Potency read?
**A.** inconclusive [cytotoxic, partial curve]

**Q.** With O=C(Nc1nc(-c2ccccc2)cs1)C1CCCCN1S(=O)(=O)c1ccc(Cl)cc1 (stereo unspecified) as the compound, how does the Potency read?
**A.** inconclusive [cytotoxic, single point]

**Q.** With CCN1C(=O)CCN(C2CCCC2)c2nc(Nc3ccc(C(=O)NC4CCN(C)CC4)cc3OC)ncc21 as the compound, how does the Potency read?
**A.** active: 20.6 µM

**Q.** With O=C(CCc1ccccc1)NNC(=O)COc1ccccc1Cl as the compound, how does the Potency read?
**A.** inactive

**Q.** Which Potency does the source give for CC(C)c1csc(CN2CCCC(CCC(=O)NCc3ccccc3F)C2)n1 (stereo unspecified) here?
**A.** inconclusive [cytotoxic, single point]

**Q.** With C=CCNC(=O)NC(=S)c1ccccc1 as the compound, how does the Potency read?
**A.** inconclusive [cytotoxic, single point]

**Q.** For COc1ccc(-c2csc(NC(CO)c3nc4ccccc4n3CCOCCO)n2)cc1 (stereo unspecified), which Potency is on record?
**A.** inactive

**Q.** For Brc1c(C[n+]2ccccc2)nc2ccccn12, which Potency is on record?
**A.** inactive

**Q.** For COc1ccc(-c2c(-c3cccc(C)c3)oc3ccc(-c4ccc5c(c4)OCO5)cc23)cn1, which Potency is on record?
**A.** inactive

**Q.** With CN1C[C@@H]2[C@@H]3C(=O)N(C)C(=O)[C@@H]3[C@](Cc3ccccc3)(C1=O)N2C(=O)c1ccc(F)cc1 as the compound, how does the Potency read?
**A.** inactive

**Q.** For COc1cccc(-n2nnc3c(=O)n(Cc4ccc(Cl)cc4)cnc32)c1, which Potency is on record?
**A.** inactive

**Q.** Which Potency does the source give for O=C1[C@H]2[C@@H](c3ccc(C(F)(F)F)cc3)N[C@]3(CCCN(CC4CCCCC4)C3=O)[C@H]2C(=O)N1Cc1ccccc1 here?
**A.** inconclusive [cytotoxic, single point]

**Q.** For COCCNC(=O)CSc1nc2cc(OC)c(OC)cc2c(=O)n1CCc1ccc(S(N)(=O)=O)cc1, which Potency is on record?
**A.** inactive

**Q.** Which Potency does the source give for CC1CN(C(=O)c2cccc(S(=O)(=O)N3CCOCC3)c2)CC(C)O1 (stereo unspecified) here?
**A.** inconclusive [rising, single point]

**Q.** Which Potency does the source give for O=[N+]([O-])c1ccc(O)c(C2=NNC(c3ccccc3F)C2)c1 (stereo unspecified) here?
**A.** inconclusive [cytotoxic, partial curve]

**Q.** For CCc1ccc(CN(Cc2cccnc2)C(=O)/C=C/c2ccc(OC)cc2)cc1, which Potency is on record?
**A.** inconclusive [cytotoxic, single point]

**Q.** For CCOC(=O)Cc1ccc(Nc2nc(NC)nc3ccsc23)cc1, which Potency is on record?
**A.** inconclusive [cytotoxic, partial curve]

**Q.** For O=C(NNC(=O)c1cccc(S(=O)(=O)N2CCc3ccccc32)c1)c1ccccc1, which Potency is on record?
**A.** inconclusive [cytotoxic, partial curve]

**Q.** For COc1ccc(Nc2nc(-c3sc(C)nc3C)cs2)c(OC)c1, which Potency is on record?
**A.** active: 16.4 µM

**Q.** For CCCOc1ccc(C(=O)NNC(=S)NC(=O)c2ccccc2[N+](=O)[O-])cc1, which Potency is on record?
**A.** inconclusive [cytotoxic, full curve]

**Q.** For CCN(CC)c1ccc(C2=NNC(=O)CC2C)cc1[N+](=O)[O-] (stereo unspecified), which Potency is on record?
**A.** inconclusive [cytotoxic, single point]

**Q.** With COc1cc2c(cc1OC)C(c1c(Cl)cccc1Cl)=NCC2 as the compound, how does the Potency read?
**A.** inconclusive [cytotoxic, partial curve]

**Q.** Which Potency does the source give for O/C(=C\c1ccc2ccccc2n1)c1ccc(O)cc1O here?
**A.** inconclusive [cytotoxic, single point]

**Q.** With COc1ccccc1C(=O)NNC1=C(C(=O)C(F)(F)F)CCC1 as the compound, how does the Potency read?
**A.** active: 2.24 µM

**Q.** With Cc1ccc(C)c(C(=O)CN2C3=NCCCN3c3ccccc32)c1 as the compound, how does the Potency read?
**A.** inconclusive [cytotoxic, single point]

**Q.** For Cn1cccc1C1Nc2ccccc2NC2=C1C(=O)CC(C)(C)C2 (stereo unspecified), which Potency is on record?
**A.** inactive

**Q.** For c1ccc(CN(Cc2ccccc2)c2ncnc3c2nnn3Cc2ccccc2)cc1, which Potency is on record?
**A.** inactive

**Q.** Which Potency does the source give for CC(C)CN(CC(C)C)S(=O)(=O)N1CCC(C(=O)NCCc2ccc(Cl)cc2)CC1 here?
**A.** inconclusive [cytotoxic, single point]

**Q.** With C/C(=N\NC(=O)c1ccc(-c2ccccc2)cc1)C1C(=O)c2ccccc2C1=O as the compound, how does the Potency read?
**A.** inactive

**Q.** For COc1ccc(NC(=O)CC2CC3CCC2C3)cc1S(=O)(=O)N1CCOCC1 (stereo unspecified), which Potency is on record?
**A.** inactive

**Q.** Which Potency does the source give for O=C(CCl)Nc1ccc(Sc2ccc(NC(=O)CCl)cc2)cc1 here?
**A.** inconclusive [cytotoxic, full curve]

**Q.** Which Potency does the source give for CCCN1CCN(CCCNC(=O)c2ccc3nc(N4CCC(C)CC4)sc3c2)CC1 here?
**A.** inactive

**Q.** With O=[N+]([O-])c1ccc2c(c1)Cc1cc(F)ccc1-2 as the compound, how does the Potency read?
**A.** inactive

**Q.** With CCN(CC)C(=O)[C@H]1C[C@H](CC(=O)NC/C=C(\C)CCC=C(C)C)C(=O)N2CCc3c([nH]c4ccc(Cl)cc34)[C@]12C as the compound, how does the Potency read?
**A.** inactive

**Q.** With N#C/C(=C\c1ccccc1[N+](=O)[O-])C(=O)NC1CCCCC1 as the compound, how does the Potency read?
**A.** active: 18.4 µM

**Q.** Which Potency does the source give for Cc1ccc(-c2cc(N)nc(-c3ccccc3)c2)cc1 here?
**A.** inconclusive [cytotoxic, single point]

**Q.** Which Potency does the source give for Cc1cccc(-c2cc3nc4c(c(N5CCCC(O)C5)n3n2)CCC4)c1 (stereo unspecified) here?
**A.** inconclusive [cytotoxic, single point]

**Q.** Which Potency does the source give for Cc1sc(NC(=O)CSc2nnc(COc3ccc(Cl)cc3)n2C)c(C#N)c1C here?
**A.** inconclusive [cytotoxic, partial curve]

**Q.** Which Potency does the source give for O=C(Nc1cc(-c2ccccc2)sc1C(=O)O)c1cccc(F)c1 here?
**A.** inactive

**Q.** For COc1ccc(NC(=S)NC(NC(=O)/C=C/c2ccccc2)C(Cl)(Cl)Cl)cc1 (stereo unspecified), which Potency is on record?
**A.** inconclusive [cytotoxic, single point]

**Q.** With Cc1ccsc1CN(C)CC(=O)NCC(=O)Nc1ccc(F)cc1 as the compound, how does the Potency read?
**A.** inactive

**Q.** For Cc1ccc(CS(=O)(=O)c2ccc(C(=O)N3CCN(c4ccccn4)CC3)cc2[N+](=O)[O-])cc1, which Potency is on record?
**A.** inconclusive [cytotoxic, single point]

**Q.** With COc1ccc2[nH]c3c(Cl)ncnc3c2c1 as the compound, how does the Potency read?
**A.** inconclusive [cytotoxic, partial curve]

**Q.** With Cc1cc(C)n(CC(=O)N/N=C/c2ccc([N+](=O)[O-])s2)n1 as the compound, how does the Potency read?
**A.** inconclusive [cytotoxic, single point]

**Q.** For S=C1N(c2ccccc2)C(c2ccc(Cl)cc2)N2CCCN12 (stereo unspecified), which Potency is on record?
**A.** inactive

**Q.** For Cc1cc(C(=O)NC2CCCc3c2cnn3-c2ccccc2F)nc(C)n1 (stereo unspecified), which Potency is on record?
**A.** inconclusive [cytotoxic, single point]

**Q.** Which Potency does the source give for CC(Sc1nnc(-c2ccccc2F)n1N)C(=O)NCC1CCCO1 (stereo unspecified) here?
**A.** inactive

**Q.** Which Potency does the source give for COc1cccc(-c2ccc(C#N)c(SCC(=O)NCCc3ccc(Cl)cc3)n2)c1 here?
**A.** inconclusive [cytotoxic, single point]

**Q.** For Oc1ccccc1N1CCN(C(c2ccccc2)c2ccccc2)CC1, which Potency is on record?
**A.** inconclusive [cytotoxic, single point]

**Q.** Which Potency does the source give for Cc1cc(C)nc(NS(=O)(=O)c2ccc(NC(=O)c3cc(-c4ccccc4)nc4ccccc34)cc2)n1 here?
**A.** inconclusive [cytotoxic, single point]

**Q.** With Nc1ccc(S(=O)(=O)NN=Cc2ccccc2[N+](=O)[O-])cc1 as the compound, how does the Potency read?
**A.** inactive

**Q.** Which Potency does the source give for CC(C)NC(=O)NC(=O)COc1ccc(Br)cc1Br here?
**A.** inactive

**Q.** Which Potency does the source give for Cc1cc(C)nc(N/N=C2/CCCC/C2=C\c2ccccc2)n1 here?
**A.** inconclusive [cytotoxic, full curve, poor fit]
